PubChem BioAssay AID624202 (National Center for Advancing Translational Sciences (NCATS), 2012)
The whole screen tested about 380,000 compounds, of which about 4,000 (1.1%) were called active. This list was built around the results that the source calls inconclusive (neither active nor inactive); the mix of calls is not that of the screen. Calls come from the whole dose curve; as a rule, active = well fitted activation curve with a large enough effect; inconclusive = small, poorly fitted or top-dose-only effect; inactive = no such curve, though single readings can be large or run the other way. A potency beside an inconclusive call is a rough fit, not a confirmed value.

Test: qHTS Assay to Identify Small Molecule Activators of BRCA1 Expression; note: nearly all actives have a fitted effect of over 80% in size
Conditions: MCF7-BRCA1-FFLuc reporter, luminescence, 48 h; activation: at 46.1 µM (top of the series), scaled: vehicle 0%, 10 µM genistein 100% unless noted
How it was run: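 Quantitative HTS in MCF7 cells stably reporting BRCA1 expression via firefly luciferase. Compound treatment lasts 48 h at 37 °C in phenol-red free MEM. Activation is expressed relative to genistein at 10 microM and DMSO.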
Potency is the fitted concentration of half-maximal effect; tags give direction and shape of the fitted curve.

SMILES | activation | Potency
Cc1cc2oc(=O)cc(COC(=O)c3n[nH]c4ccccc34)c2cc1C | inactive: 70.3% | –
O=C(CCc1nnc(CCc2c[nH]c3ccccc23)o1)NC1CCC1 | – | inconclusive: 31.6 µM [activator, single point]
O=C(OCC(=O)N1CCCCC1)c1cccs1 | – | inconclusive: 14.1 µM [activator, partial curve, poor fit]
CC(C)c1ccc(NC(=O)c2ccccc2NC(=O)C2CC=CCC2C(=O)O)cc1 (stereo not drawn) | – | inconclusive: 15.8 µM [activator, single point]
CC1(C)CC(=O)C(C(c2ccc(Br)cc2)C2C(=O)CC(C)(C)CC2=O)C(=O)C1 | inactive: -25.7% | –
N#Cc1ccsc1NC(=O)COC(=O)c1ccc2ccccc2c1 | – | inconclusive: 1.26 µM [activator, full curve, poor fit]
COc1ccc(NC(=O)CCNC(=O)Cn2ccc3ccccc3c2=O)cc1Cl | inactive: -18.1% | –
COc1cccc(-c2nnc(-c3ccc4ccccc4c3)o2)c1 | – | inconclusive: 2 µM [activator, partial curve, poor fit]
Cc1cc(C(=O)Nc2cccc(C(=O)O)c2)oc1C | inconclusive: -95.6% [activator] | –
CCC(=O)c1ccc(OCC(O)Cn2nnc3ccccc32)cc1 (stereo not drawn) | – | active: 10 µM
CN1CCC/C1=C/C=C1\SC(=S)NC1=O | – | active: 10 µM
Cc1cc(C(=O)N/N=C/c2ccc(-c3cccc([N+](=O)[O-])c3)o2)n[nH]1 | inactive: 1.73% | –
Cc1ccc(-c2cc(C(=O)NC3CCCCC3)no2)cc1 | – | inconclusive: 2.82 µM [activator, full curve, poor fit]
CCc1ccccc1N1C(=O)N(Cc2cc(=O)n3ccccc3n2)c2ccccc2S1(=O)=O | inactive: -29.3% | –
CCCCCCOC(=O)c1ccc(OC(=O)c2cccnc2)cc1 | – | inconclusive: 22.4 µM [activator, single point]
COc1ccccc1C(=O)CSc1ccccn1 | – | inconclusive: 20 µM [activator, partial curve, poor fit]
CCn1c(Cn2nnc(-c3ccccc3)n2)nnc1SCC(=O)Nc1ccc(C(C)=O)cc1 | – | inconclusive: 22.4 µM [activator, single point]
Cc1cc(Cl)ccc1NNC(=O)c1c(C)noc1C | inactive: 2.02% | –
O=C(Nc1cc(C(F)(F)F)ccc1N1CCOCC1)c1ccco1 | inactive: -2.25% | –
CC(=O)n1nc(-c2ccccc2)nc1NCc1ccc(N(C)C)cc1 | – | inconclusive: 14.1 µM [activator, partial curve, poor fit]
O=C(NN=Cc1ccc(Cl)cc1Cl)c1ccccc1 | – | inconclusive: 1.58 µM [activator, full curve, poor fit]
CCOc1ccc(/C=C2\SC(=S)N(CCCC(=O)NCCCN3CCOCC3)C2=O)cc1 | inactive: -77.1% | –
O=C(Nc1nc2ccccc2[nH]1)C1CCCC1 | – | inconclusive: 2.82 µM [activator, full curve, poor fit]
CN1CCN(/N=C/c2ccc(-c3ccccc3)cc2)CC1 | – | inconclusive: 6.31 µM [activator, partial curve, poor fit]
Oc1ccccc1-c1cc(-c2ccc3c(c2)OCCO3)n[nH]1 | inconclusive: -44.8% [activator] | –

SMILES | activation | Potency
Cc1ccc(NC(=O)c2ccc(OC(=O)c3ccco3)cc2)cc1 | – | inconclusive: 7.08 µM [activator, full curve, poor fit]
CCC(=O)Nc1ccc(NC(=O)c2ccccn2)cn1 | – | inconclusive: 1.26 µM [activator, partial curve, poor fit]
COc1ccc(-c2ccc3oc(-c4ccsc4)cc(=O)c3c2)cn1 | – | inconclusive: 2.24 µM [activator, partial curve, poor fit]
c1ccc2nc(SCc3cn4ccccc4n3)cnc2c1 | – | inconclusive: 11.2 µM [activator, partial curve, poor fit]
O=C(NCC1COc2ccccc2O1)c1ccccc1 (stereo not drawn) | – | active: 7.94 µM
O=C(CSc1nnc2ccc3ccccc3n12)N1CCOCC1 | – | inconclusive: 25.1 µM [activator, single point]
CSc1cccc(NC(=O)c2sc3nc4n(c(=O)c3c2C)CCC4)c1 | – | active: 8.91 µM
Cc1c(C(=O)Nc2ccccc2F)sc2nc3n(c(=O)c12)CCC3 | – | inconclusive: 2 µM [activator, partial curve, poor fit]
Cc1ccc(S(=O)(=O)Nc2ccc3ncccc3c2[N+](=O)[O-])cc1 | inactive: -18.5% | –
COc1cccc(CNS(=O)(=O)c2c(C(=O)N3CCCC3)c(C)n(C)c2C)c1 | inactive: -1.13% | –
CN(C)c1ccc(-c2nc3ccc(Cl)cn3c2Nc2ccc3c(c2)OCCO3)cc1 | – | active: 10 µM
Cc1ccc(-n2c(N)c(C(=O)N3CCOCC3)sc2=S)cc1 | inactive: 4.11% | –
COc1ccc2nc(NC(=O)Cc3cccs3)sc2c1 | – | inconclusive: 2.51 µM [activator, partial curve, poor fit]
O=C(Nc1ccccc1)c1ccccc1NC(=O)c1ccccc1C(=O)O | – | inconclusive: 17.8 µM [activator, partial curve, poor fit]
CC(=O)Nc1cccc(OCC(=O)Nc2sccc2C(N)=O)c1 | – | active: 3.98 µM
CCOc1ccc(CNc2nc3ccccc3n2C)cc1 | – | inconclusive: 2.82 µM [activator, full curve, poor fit]
CC(=O)Nc1ccc(OCC(O)CN2CCN(c3cc(Cl)ccc3C)CC2)cc1 (stereo not drawn) | inactive: 1.3% | –
Cc1ccc2cc(CCNC(=O)c3ccco3)c(=O)[nH]c2c1C | – | inconclusive: 1.58 µM [activator, partial curve, poor fit]
Cc1cc(C)n(-c2cc(C(C)(C)C)nc3c(-c4ccccc4)cnn23)n1 | – | inconclusive: 2 µM [activator, partial curve, poor fit]
CCOC(=O)[C@H]1[C@H]2COc3ccc(OC)cc3[C@@H]2N2C(=O)[C@H](C)NC(=O)[C@@]12C | inactive: 2.09% | –
CN(C)c1cccc(C(=O)Nc2ccc(N3CCOCC3)cc2)c1 | – | active: 11.2 µM
COc1ccc(S(=O)(=O)N(C)c2ccc(C(=O)Nc3cccnc3)cc2)cc1OC | inactive: -2.41% | –
O=C(c1cccc(S(=O)(=O)N2CCCC2)c1)c1cccc(S(=O)(=O)N2CCCC2)c1 | inactive: -16.7% | –
N#CC(=C1CCCC1)c1nc(-c2cc3ccccc3oc2=O)cs1 | – | inconclusive: 6.31 µM [activator, full curve, poor fit]
O=[N+]([O-])c1c(NCCCO)cc(Sc2ccc(Cl)cc2)c2nonc12 | inactive: -93.4% | –

SMILES | activation | Potency
Clc1ccc(CN=C2Nc3ccccc3CS2)cc1 | – | active: 8.91 µM
COc1ccc(-c2nc(N)nc(N)n2)c(O)c1 | – | inconclusive: 20 µM [activator, partial curve, poor fit]
Cc1noc(C)c1S(=O)(=O)N(CC(=O)Nc1ccc(C(F)(F)F)cc1)c1ccc(C(C)C)cc1 | inactive: -11.6% | –
C[C@H](CO)N1C[C@H](C)[C@@H](CN(C)C(=O)C2CC2)OCc2cnnn2CCCC1=O | inactive: -18.7% | –
COc1ccc(/C=N/N=C(\N)c2nonc2N)cc1OC | – | inconclusive: 15.8 µM [activator, partial curve, poor fit]
O=C(NNC1=NCCCCC1)Nc1cccc(Cl)c1 | – | inconclusive: 7.94 µM [activator, partial curve, poor fit]
O=C(CC(=O)c1ccccc1)Nc1ccc(Cl)cc1 | – | inconclusive: 11.2 µM [activator, partial curve, poor fit]
O=C(CCNC(=O)c1ccccc1Cl)Nc1nc2ccccc2s1 | – | active: 11.2 µM
CCC(=O)NC(=S)Nc1ccc2oc(-c3ccc(OC)cc3)nc2c1 | – | inconclusive: 2.51 µM [activator, full curve, poor fit]
S=C(Nc1ccc2c(c1)OCCO2)Nc1ccc2c(c1)OCO2 | – | inconclusive: 11.2 µM [activator, partial curve, poor fit]
CSc1ccc(/C=N/NC(=O)CN2CCN(Cc3ccccc3Cl)CC2)cc1 | – | inconclusive: 15.8 µM [activator, single point]
Nc1nc(SCc2ccccc2)sc1C(=O)N1CCCCC1 | – | active: 2.24 µM
CN(C(=O)C1CCOC1)c1nnc(-c2ccccn2)s1 (stereo not drawn) | – | inconclusive: 10 µM [activator, partial curve, poor fit]
O=C(COc1ccccc1)N1CCN(S(=O)(=O)c2cccs2)CC1 | inactive: 4.59% | –
Cc1ccc(NC(=O)Cc2noc3ccccc23)cc1 | – | inconclusive: 10 µM [activator, partial curve, poor fit]
Cc1nc(SCC(=O)N2CCNC2=O)c2ccccc2n1 | inactive: -44.8% | –
O=C(Nc1ccc2c(c1)OCCO2)c1cncc(Br)c1 | – | inconclusive: 3.16 µM [activator, partial curve, poor fit]
CCOC(=O)c1[nH]c(C)c(C(=O)Nc2cc(Cl)ccc2C)c1C | inconclusive: -81% [activator] | –
CCn1c(C)nc2cc(C(=O)NNC(=O)c3ccc(C)cc3)ccc21 | – | inconclusive: 14.1 µM [activator, partial curve, poor fit]
CC(=O)[C@@H]1[C@@H]2C(=O)N(Cc3ccccc3)C(=O)[C@@H]2C2c3ccccc3C=CN21 (stereo partly drawn) | inactive: 2.13% | –
COc1ccc(/C(N)=N/OC(=O)CC2CCCCC2)cc1 | – | inconclusive: 7.08 µM [activator, partial curve, poor fit]
COc1ccc(OCc2cc(C(=O)N3CCCCCCC3)no2)c(Cl)c1 | – | inconclusive: 14.1 µM [activator, partial curve, poor fit]
N#Cc1c(-c2ccc(Cl)cc2)ccn2nc(C3CCCCC3)nc12 | – | inconclusive: 3.16 µM [activator, full curve, poor fit]
